# The other results are listed elsewhere or left out.
# Assays:
# Test in all cases: glycan array binding signal (z-score within array); higher = stronger binding
# Conditions in all cases: glycan notation: IUPAC condensed, linker removed
# [1] = target: Neu5Ac(a2-3)Gal(b1-3)GlcNAc
# How it was run: (§1)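 The binding signal is a Z-score computed within each array. Data were drawn from 3228 arrays in the Consortium for Functional Glycomics database, restricted to those with a known protein sequence. Scores were averaged over arrays of the same protein sequence at different concentrations or buffers, and over linkers, and negative values can be taken as non-binding.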
# [2] = target: Neu5Ac(a2-3)Gal(b1-3)GlcNAc(b1-2)Man
# How it was run: as §1
# [3] = target: Neu5Ac(a2-3)Gal(b1-3)GlcNAc(b1-2)Man(a1-3)[GlcNAc(b1-4)][Neu5Ac(a2-3)Gal(b1-3)GlcNAc(b1-2)Man(a1-6)]Man(b1-4)GlcNAc(b1-4)GlcNAc
# How it was run: as §1
# [4] = target: Neu5Ac(a2-3)Gal(b1-3)GlcNAc(b1-2)Man(a1-3)[Neu5Ac(a2-3)Gal(b1-3)GlcNAc(b1-2)Man(a1-6)]Man(b1-4)GlcNAc(b1-4)GlcNAc
# How it was run: as §1
# [5] = target: Neu5Ac(a2-3)Gal(b1-3)GlcNAc(b1-3)Gal(b1-3)GlcNAc
# How it was run: as §1
# [6] = target: Neu5Ac(a2-3)Gal(b1-3)GlcNAc(b1-3)Gal(b1-4)GlcNAc
# How it was run: as §1
# [7] = target: Neu5Ac(a2-3)Gal(b1-3)GlcNAc(b1-3)GalNAc
# How it was run: as §1
# [8] = target: Neu5Ac(a2-3)Gal(b1-3)GlcNAc(b1-4)Gal(b1-4)Glc
# How it was run: as §1
# [9] = target: Neu5Ac(a2-3)Gal(b1-3)GlcNAc(b1-6)GalNAc
# How it was run: as §1
# [10] = target: Neu5Ac(a2-3)Gal(b1-3)GlcNAc6S
# How it was run: as §1
# [11] = target: Neu5Ac(a2-3)Gal(b1-3)[Fuc(a1-4)]GlcNAc
# How it was run: as §1
# [12] = target: Neu5Ac(a2-3)Gal(b1-3)[Fuc(a1-4)]GlcNAc(b1-3)Gal(b1-3)[Fuc(a1-4)]GlcNAc
# How it was run: as §1
# [13] = target: Neu5Ac(a2-3)Gal(b1-3)[Fuc(a1-4)]GlcNAc(b1-3)Gal(b1-4)[Fuc(a1-3)]GlcNAc
# How it was run: as §1
# [14] = target: Neu5Ac(a2-3)Gal(b1-3)[GlcNAc(b1-6)]GalNAc
# How it was run: as §1
# [15] = target: Neu5Ac(a2-3)Gal(b1-3)[Neu5Ac(a2-3)Gal(b1-4)]GlcNAc
# How it was run: as §1
# [16] = target: Neu5Ac(a2-3)Gal(b1-3)[Neu5Ac(a2-6)]GalNAc
# How it was run: as §1
# [17] = target: Neu5Ac(a2-3)Gal(b1-3)[Neu5Ac(a2-6)]GlcNAc(b1-3)[Fuc(a1-3)[Gal(b1-4)]GlcNAc(b1-6)]Gal(b1-4)Glc
# How it was run: as §1
# [18] = target: Neu5Ac(a2-3)Gal(b1-3)]Neu5Ac(a2-3)Gal(b1-4)]GlcNAc
# How it was run: as §1
# [19] = target: Neu5Ac(a2-3)Gal(b1-4)Glc
# How it was run: as §1
# [20] = target: Neu5Ac(a2-3)Gal(b1-4)GlcNAc
# How it was run: as §1
# [21] = target: Neu5Ac(a2-3)Gal(b1-4)GlcNAc(b1-2)Man
# How it was run: as §1
# [22] = target: Neu5Ac(a2-3)Gal(b1-4)GlcNAc(b1-2)Man(a1-3)[GlcNAc(b1-4)][Neu5Ac(a2-3)Gal(b1-4)GlcNAc(b1-2)Man(a1-6)]Man(b1-4)GlcNAc(b1-4)GlcNAc
# How it was run: as §1
# [23] = target: Neu5Ac(a2-3)Gal(b1-4)GlcNAc(b1-2)Man(a1-3)[Neu5Ac(a2-3)Gal(b1-4)GlcNAc(b1-2)Man(a1-6)]Man(b1-4)GlcNAc(b1-4)GlcNAc
# How it was run: as §1
# [24] = target: Neu5Ac(a2-3)Gal(b1-4)GlcNAc(b1-2)Man(a1-3)[Neu5Ac(a2-3)Gal(b1-4)GlcNAc(b1-2)Man(a1-6)]Man(b1-4)GlcNAc(b1-4)[Fuc(a1-6)]GlcNAc
# How it was run: as §1
# [25] = target: Neu5Ac(a2-3)Gal(b1-4)GlcNAc(b1-2)Man(a1-3)[Neu5Ac(a2-6)Gal(b1-4)GlcNAc(b1-2)Man(a1-6)]Man(b1-4)GlcNAc(b1-4)GlcNAc
# How it was run: as §1
# [26] = target: Neu5Ac(a2-3)Gal(b1-4)GlcNAc(b1-2)[Neu5Ac(a2-3)Gal(b1-4)GlcNAc(b1-4)]Man(a1-3)[GlcNAc(b1-4)][Neu5Ac(a2-3)Gal(b1-4)GlcNAc(b1-2)[Neu5Ac(a2-3)Gal(b1-4)GlcNAc(b1-6)]Man(a1-6)]Man(b1-4)GlcNAc(b1-4)GlcNAc
# How it was run: as §1
# [27] = target: Neu5Ac(a2-3)Gal(b1-4)GlcNAc(b1-2)[Neu5Ac(a2-3)Gal(b1-4)GlcNAc(b1-4)]Man(a1-3)[GlcNAc(b1-4)][Neu5Ac(a2-3)Gal(b1-4)GlcNAc(b1-4)Man(a1-6)]Man(b1-4)GlcNAc(b1-4)GlcNAc
# How it was run: as §1
# [28] = target: Neu5Ac(a2-3)Gal(b1-4)GlcNAc(b1-2)[Neu5Ac(a2-3)Gal(b1-4)GlcNAc(b1-6)]Man(a1-6)[Neu5Ac(a2-3)Gal(b1-4)GlcNAc(b1-2)Man(a1-3)]Man(b1-4)GlcNAc(b1-4)GlcNAc
# How it was run: as §1
# [29] = target: Neu5Ac(a2-3)Gal(b1-4)GlcNAc(b1-2)[Neu5Ac(a2-3)Gal(b1-4)GlcNAc(b1-6)]Man(a1-6)[Neu5Ac(a2-3)Gal(b1-4)GlcNAc(b1-2)Man(a1-3)][GlcNAc(b1-4)]Man(b1-4)GlcNAc(b1-4)GlcNAc
# How it was run: as §1
# [30] = target: Neu5Ac(a2-3)Gal(b1-4)GlcNAc(b1-3)Gal
# How it was run: as §1
# [31] = target: Neu5Ac(a2-3)Gal(b1-4)GlcNAc(b1-3)Gal(b1-3)GlcNAc
# How it was run: as §1
# [32] = target: Neu5Ac(a2-3)Gal(b1-4)GlcNAc(b1-3)Gal(b1-4)GlcNAc
# How it was run: as §1
# [33] = target: Neu5Ac(a2-3)Gal(b1-4)GlcNAc(b1-3)Gal(b1-4)GlcNAc(b1-2)Man(a1-3)[Neu5Ac(a2-3)Gal(b1-4)GlcNAc(b1-3)Gal(b1-4)GlcNAc(b1-2)Man(a1-6)]Man(b1-4)GlcNAc(b1-4)GlcNAc
# How it was run: as §1
# [34] = target: Neu5Ac(a2-3)Gal(b1-4)GlcNAc(b1-3)Gal(b1-4)GlcNAc(b1-3)Gal(b1-4)GlcNAc
# How it was run: as §1
# [35] = target: Neu5Ac(a2-3)Gal(b1-4)GlcNAc(b1-3)Gal(b1-4)GlcNAc(b1-3)Gal(b1-4)GlcNAc(b1-2)Man(a1-3)[Neu5Ac(a2-3)Gal(b1-4)GlcNAc(b1-3)Gal(b1-4)GlcNAc(b1-3)Gal(b1-4)GlcNAc(b1-2)Man(a1-6)]GalNAc
# How it was run: as §1
# [36] = target: Neu5Ac(a2-3)Gal(b1-4)GlcNAc(b1-3)Gal(b1-4)GlcNAc(b1-3)GalNAc
# How it was run: as §1
# [37] = target: Neu5Ac(a2-3)Gal(b1-4)GlcNAc(b1-3)Gal(b1-4)GlcNAc(b1-3)[Neu5Ac(a2-3)Gal(b1-4)GlcNAc(b1-3)Gal(b1-4)GlcNAc(b1-6)]GalNAc
# How it was run: as §1
# [38] = target: Neu5Ac(a2-3)Gal(b1-4)GlcNAc(b1-3)Gal(b1-4)GlcNAc(b1-6)[Gal(b1-3)]GalNAc
# How it was run: as §1
# [39] = target: Neu5Ac(a2-3)Gal(b1-4)GlcNAc(b1-3)Gal(b1-4)[Fuc(a1-3)]GlcNAc
# How it was run: as §1
# [40] = target: Neu5Ac(a2-3)Gal(b1-4)GlcNAc(b1-3)GalNAc
# How it was run: as §1
# [41] = target: Neu5Ac(a2-3)Gal(b1-4)GlcNAc(b1-3)[Neu5Ac(a2-3)Gal(b1-4)GlcNAc(b1-6)]GalNAc
# How it was run: as §1
# [42] = target: Neu5Ac(a2-3)Gal(b1-4)GlcNAc(b1-6)GalNAc
# How it was run: as §1
# [43] = target: Neu5Ac(a2-3)Gal(b1-4)GlcNAc(b1-6)[Gal(b1-3)]GalNAc
# How it was run: as §1
# [44] = target: Neu5Ac(a2-3)Gal(b1-4)GlcNAc(b1-6)[Neu5Ac(a2-3)Gal(b1-3)]GalNAc
# How it was run: as §1
# [45] = target: Neu5Ac(a2-3)Gal(b1-4)GlcNAc6S
# How it was run: as §1
binder,measurement,setting,value
HHA (Hippeastrum hybrid) (protein) MQQDCNLVLYDVDKPIWASNTGGLARDCHLNMQSDGNLVVYAPRNQVIWASNTQGENGNYVCILQKDRNVVIYGTARWATGTNIHGAGIVGVPGSAPQNTTAEMIKLVRKYLITK,glycan array binding signal (z-score),[1],-0.217
same,glycan array binding signal (z-score),[2],-0.196
same,glycan array binding signal (z-score),[3],-0.096
same,glycan array binding signal (z-score),[4],-0.202
same,glycan array binding signal (z-score),[5],-0.196
same,glycan array binding signal (z-score),[6],-0.208
same,glycan array binding signal (z-score),[7],-0.092
same,glycan array binding signal (z-score),[8],-0.158
same,glycan array binding signal (z-score),[9],-0.216
same,glycan array binding signal (z-score),[10],-0.188
same,glycan array binding signal (z-score),[11],-0.214
same,glycan array binding signal (z-score),[12],-0.132
same,glycan array binding signal (z-score),[13],-0.14
same,glycan array binding signal (z-score),[14],-0.214
same,glycan array binding signal (z-score),[15],-0.269
same,glycan array binding signal (z-score),[16],-0.203
same,glycan array binding signal (z-score),[17],-0.213
same,glycan array binding signal (z-score),[18],-0.196
same,glycan array binding signal (z-score),[19],-0.2
same,glycan array binding signal (z-score),[20],-0.177
same,glycan array binding signal (z-score),[21],-0.185
same,glycan array binding signal (z-score),[22],-0.22
same,glycan array binding signal (z-score),[23],-0.215
same,glycan array binding signal (z-score),[24],-0.214
same,glycan array binding signal (z-score),[25],-0.22
same,glycan array binding signal (z-score),[26],-0.213
same,glycan array binding signal (z-score),[27],-0.218
same,glycan array binding signal (z-score),[28],-0.086
same,glycan array binding signal (z-score),[29],-0.221
same,glycan array binding signal (z-score),[30],-0.221
same,glycan array binding signal (z-score),[31],-0.215
same,glycan array binding signal (z-score),[32],-0.21
same,glycan array binding signal (z-score),[33],-0.067
same,glycan array binding signal (z-score),[34],-0.185
same,glycan array binding signal (z-score),[35],-0.001
same,glycan array binding signal (z-score),[36],-0.188
same,glycan array binding signal (z-score),[37],-0.187
same,glycan array binding signal (z-score),[38],-0.16
same,glycan array binding signal (z-score),[39],-0.207
same,glycan array binding signal (z-score),[40],-0.156
same,glycan array binding signal (z-score),[41],-0.205
same,glycan array binding signal (z-score),[42],-0.212
same,glycan array binding signal (z-score),[43],-0.208
same,glycan array binding signal (z-score),[44],-0.215
same,glycan array binding signal (z-score),[45],-0.158

# From the supplement of paper PMC8728848
